Assay results taken from publication PMC9911399, “Two distinct binding modes provide the RNA-binding protein RbFox with extraordinary sequence specificity”.
Positions count from the first letter of the chain named. The list shows a part of the results.

B1: CGUUGAC (DNA:RNA)
RNA: GGGAGACCGGAAUUCAGAUUGUCCCGUUGACUUAAAUCCCGUCGUAGCCACCA
DNA 1: CAATCTGAATTCCGGTCTCCC
DNA 2: TGGTGGCTACGACGGGATT
B2: ACUAUCA (DNA:RNA)
RNA: B1 RNA with C25A, G26C, U28A, G29U, A30C, C31A
DNA 1: CAATCTGAATTCCGGTCTCCC
DNA 2: TGGTGGCTACGACGGGATT
B3: CUUAAGA (DNA:RNA)
RNA: B1 RNA with G26U, U28A, G29A, A30G, C31A
DNA 1: CAATCTGAATTCCGGTCTCCC
DNA 2: TGGTGGCTACGACGGGATT
B4: CUAUCCC (DNA:RNA)
RNA: B1 RNA with G26U, U27A, G29C, A30C
DNA 1: CAATCTGAATTCCGGTCTCCC
DNA 2: TGGTGGCTACGACGGGATT
B5: GAAAGGA (DNA:RNA)
RNA: B1 RNA with C25G, G26A, U27A, U28A, A30G, C31A
DNA 1: CAATCTGAATTCCGGTCTCCC
DNA 2: TGGTGGCTACGACGGGATT
B6: CCUUGUG (DNA:RNA)
RNA: B1 RNA with G26C, A30U, C31G
DNA 1: CAATCTGAATTCCGGTCTCCC
DNA 2: TGGTGGCTACGACGGGATT
B7: CUACUGC (DNA:RNA)
RNA: B1 RNA with G26U, U27A, U28C, G29U, A30G
DNA 1: CAATCTGAATTCCGGTCTCCC
DNA 2: TGGTGGCTACGACGGGATT
B8: AUCGGUU (DNA:RNA)
RNA: B1 RNA with C25A, G26U, U27C, U28G, A30U, C31U
DNA 1: CAATCTGAATTCCGGTCTCCC
DNA 2: TGGTGGCTACGACGGGATT
B9: AAAUAUU (DNA:RNA)
RNA: B1 RNA with C25A, G26A, U27A, G29A, A30U, C31U
DNA 1: CAATCTGAATTCCGGTCTCCC
DNA 2: TGGTGGCTACGACGGGATT
B10: CAAGAGC (DNA:RNA)
RNA: B1 RNA with G26A, U27A, U28G, G29A, A30G
DNA 1: CAATCTGAATTCCGGTCTCCC
DNA 2: TGGTGGCTACGACGGGATT
B11: UACACUU (DNA:RNA)
RNA: GGGAGACCGGAAUUCAGAUUGUCCUACACUUUUAAAUCCCGUCGUAGCCACCA
DNA 1: CAATCTGAATTCCGGTCTCCC
DNA 2: TGGTGGCTACGACGGGATT
B12: CCGAGAA (DNA:RNA)
RNA: B1 RNA with G26C, U27G, U28A, C31A
DNA 1: CAATCTGAATTCCGGTCTCCC
DNA 2: TGGTGGCTACGACGGGATT
B13: UGGUGCC (DNA:RNA)
RNA: B1 RNA with C25U, U27G, A30C
DNA 1: CAATCTGAATTCCGGTCTCCC
DNA 2: TGGTGGCTACGACGGGATT
B14: AGGCAGU (DNA:RNA)
RNA: B1 RNA with C25A, U27G, U28C, G29A, A30G, C31U
DNA 1: CAATCTGAATTCCGGTCTCCC
DNA 2: TGGTGGCTACGACGGGATT
B15: GCACCCA (DNA:RNA)
RNA: B11 RNA with U25G, A26C, C27A, A28C, U30C, U31A
DNA 1: CAATCTGAATTCCGGTCTCCC
DNA 2: TGGTGGCTACGACGGGATT
B16: UAUUCGU (DNA:RNA)
RNA: B11 RNA with C27U, A28U, U30G
DNA 1: CAATCTGAATTCCGGTCTCCC
DNA 2: TGGTGGCTACGACGGGATT
B17: UCAAAUC (DNA:RNA)
RNA: B11 RNA with A26C, C27A, C29A, U31C
DNA 1: CAATCTGAATTCCGGTCTCCC
DNA 2: TGGTGGCTACGACGGGATT
B18: CUUGUUU (DNA:RNA)
RNA: B1 RNA with G26U, U28G, G29U, A30U, C31U
DNA 1: CAATCTGAATTCCGGTCTCCC
DNA 2: TGGTGGCTACGACGGGATT
B19: GGCCUAA (DNA:RNA)
RNA: B1 RNA with C25G, U27C, U28C, G29U, C31A
DNA 1: CAATCTGAATTCCGGTCTCCC
DNA 2: TGGTGGCTACGACGGGATT
B20: ACUUGGG (DNA:RNA)
RNA: B1 RNA with C25A, G26C, A30G, C31G
DNA 1: CAATCTGAATTCCGGTCTCCC
DNA 2: TGGTGGCTACGACGGGATT
B21: UUGAUAC (DNA:RNA)
RNA: B1 RNA with C25U, G26U, U27G, U28A, G29U
DNA 1: CAATCTGAATTCCGGTCTCCC
DNA 2: TGGTGGCTACGACGGGATT
B22: UGUAAAU (DNA:RNA)
RNA: B1 RNA with C25U, U28A, G29A, C31U
DNA 1: CAATCTGAATTCCGGTCTCCC
DNA 2: TGGTGGCTACGACGGGATT
B23: UGAUGCA (DNA:RNA)
RNA: B1 RNA with C25U, U27A, A30C, C31A
DNA 1: CAATCTGAATTCCGGTCTCCC
DNA 2: TGGTGGCTACGACGGGATT
B24: AGUCUUC (DNA:RNA)
RNA: B1 RNA with C25A, U28C, G29U, A30U
DNA 1: CAATCTGAATTCCGGTCTCCC
DNA 2: TGGTGGCTACGACGGGATT
B25: UCAGCCA (DNA:RNA)
RNA: B11 RNA with A26C, C27A, A28G, U30C, U31A
DNA 1: CAATCTGAATTCCGGTCTCCC
DNA 2: TGGTGGCTACGACGGGATT
B26: ACUACAA (DNA:RNA)
RNA: B1 RNA with C25A, G26C, U28A, G29C, C31A
DNA 1: CAATCTGAATTCCGGTCTCCC
DNA 2: TGGTGGCTACGACGGGATT
B27: GUUUAUU (DNA:RNA)
RNA: B1 RNA with C25G, G26U, G29A, A30U, C31U
DNA 1: CAATCTGAATTCCGGTCTCCC
DNA 2: TGGTGGCTACGACGGGATT
B28: CGGGCAU (DNA:RNA)
RNA: B1 RNA with U27G, U28G, G29C, C31U
DNA 1: CAATCTGAATTCCGGTCTCCC
DNA 2: TGGTGGCTACGACGGGATT
B29: ACCUCGA (DNA:RNA)
RNA: B11 RNA with U25A, A26C, A28U, U30G, U31A
DNA 1: CAATCTGAATTCCGGTCTCCC
DNA 2: TGGTGGCTACGACGGGATT
B30: CCGGAGU (DNA:RNA)
RNA: B1 RNA with G26C, U27G, U28G, G29A, A30G, C31U
DNA 1: CAATCTGAATTCCGGTCTCCC
DNA 2: TGGTGGCTACGACGGGATT
B31: GUAUGUC (DNA:RNA)
RNA: B1 RNA with C25G, G26U, U27A, A30U
DNA 1: CAATCTGAATTCCGGTCTCCC
DNA 2: TGGTGGCTACGACGGGATT

Each binder was assayed against T1, RBFOX1 RRM RbFoxmut (Fox-RRM*) (Homo sapiens, UniProt Q9NWB1 109-208, R118D;E147R;N151S;E152T) (assay: EMSA; HiTS-Eq, 1 nM pool, 10 min; buffer printed only for the single-RNA assays: 10 mM Tris pH 7.5, 150 mM NaCl, 3.4 mM EDTA, 0.001% NP-40, 30 C). Conditions: tags: His6 N-terminal (pET28a); label: 5' 32P.
T1 sequence: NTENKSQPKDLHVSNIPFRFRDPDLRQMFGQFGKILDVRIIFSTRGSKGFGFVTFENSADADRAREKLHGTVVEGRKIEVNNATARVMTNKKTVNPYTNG
How it was run: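 Relative association constants, normalised to the cognate motif, were derived by comparing read counts of each RNA species with those of the control reaction. The RNA sequenced was the free fraction, separated by 8% native PAGE after a 10 min equilibration in 50 µL of 1 nM 5′-radiolabelled RNA (7 randomized nucleotides) with increasing concentrations of purified wild-type or mutant RbFox RRM.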

Binder | binding signal
B1 | 0.125 KA relative to UGCAUGU
B2 | 0.0809 KA relative to UGCAUGU
B3 | 0.097 KA relative to UGCAUGU
B4 | 0.0664 KA relative to UGCAUGU
B5 | 0.045 KA relative to UGCAUGU
B6 | 0.155 KA relative to UGCAUGU
B7 | 0.104 KA relative to UGCAUGU
B8 | 0.105 KA relative to UGCAUGU
B9 | 0.102 KA relative to UGCAUGU
B10 | 0.0966 KA relative to UGCAUGU
B11 | 0.0821 KA relative to UGCAUGU
B12 | 0.138 KA relative to UGCAUGU
B13 | 0.257 KA relative to UGCAUGU
B14 | 0.0641 KA relative to UGCAUGU
B15 | 0.0828 KA relative to UGCAUGU
B16 | 0.1 KA relative to UGCAUGU

Binder | binding signal
B17 | 0.063 KA relative to UGCAUGU
B18 | 0.0932 KA relative to UGCAUGU
B19 | 0.0594 KA relative to UGCAUGU
B20 | 0.0735 KA relative to UGCAUGU
B21 | 0.119 KA relative to UGCAUGU
B22 | 0.0668 KA relative to UGCAUGU
B23 | 0.216 KA relative to UGCAUGU
B24 | 0.125 KA relative to UGCAUGU
B25 | 0.106 KA relative to UGCAUGU
B26 | 0.0702 KA relative to UGCAUGU
B27 | 0.0945 KA relative to UGCAUGU
B28 | 0.0853 KA relative to UGCAUGU
B29 | 0.149 KA relative to UGCAUGU
B30 | 0.0907 KA relative to UGCAUGU
B31 | 0.334 KA relative to UGCAUGU
